We go through 112 molecules from PubChem BioAssay AID488969 (Vanderbilt High Throughput Screening Facility, 2010).

Whole data set: some 110,000 compounds, median “z-score” near -0.1, cut for the highest 2% near 2. This is one part of the list. Calls of active or inactive are those of the source.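 How the source made its calls: active means z-score in the third read window above 3 or below -3; inactive means the rest.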

In this test the target is Metabotropic glutamate receptor 8 (Rattus norvegicus) (UniProt P70579). The test can be described thus: rat mGluR8 modulators via GIRK flux, primary screen, cell-based, thallium flux, HTS (AID 488969). As to conditions: HEK293 rat mGluR8, GIRK (G protein-gated inwardly rectifying potassium channel) thallium flux, FluoZin2; at 10 µM; stronger effect = higher value; submaximal glutamate (EC20) added with thallium.
Sequence of UniProt P70579 (P70579 whole entry, looked up): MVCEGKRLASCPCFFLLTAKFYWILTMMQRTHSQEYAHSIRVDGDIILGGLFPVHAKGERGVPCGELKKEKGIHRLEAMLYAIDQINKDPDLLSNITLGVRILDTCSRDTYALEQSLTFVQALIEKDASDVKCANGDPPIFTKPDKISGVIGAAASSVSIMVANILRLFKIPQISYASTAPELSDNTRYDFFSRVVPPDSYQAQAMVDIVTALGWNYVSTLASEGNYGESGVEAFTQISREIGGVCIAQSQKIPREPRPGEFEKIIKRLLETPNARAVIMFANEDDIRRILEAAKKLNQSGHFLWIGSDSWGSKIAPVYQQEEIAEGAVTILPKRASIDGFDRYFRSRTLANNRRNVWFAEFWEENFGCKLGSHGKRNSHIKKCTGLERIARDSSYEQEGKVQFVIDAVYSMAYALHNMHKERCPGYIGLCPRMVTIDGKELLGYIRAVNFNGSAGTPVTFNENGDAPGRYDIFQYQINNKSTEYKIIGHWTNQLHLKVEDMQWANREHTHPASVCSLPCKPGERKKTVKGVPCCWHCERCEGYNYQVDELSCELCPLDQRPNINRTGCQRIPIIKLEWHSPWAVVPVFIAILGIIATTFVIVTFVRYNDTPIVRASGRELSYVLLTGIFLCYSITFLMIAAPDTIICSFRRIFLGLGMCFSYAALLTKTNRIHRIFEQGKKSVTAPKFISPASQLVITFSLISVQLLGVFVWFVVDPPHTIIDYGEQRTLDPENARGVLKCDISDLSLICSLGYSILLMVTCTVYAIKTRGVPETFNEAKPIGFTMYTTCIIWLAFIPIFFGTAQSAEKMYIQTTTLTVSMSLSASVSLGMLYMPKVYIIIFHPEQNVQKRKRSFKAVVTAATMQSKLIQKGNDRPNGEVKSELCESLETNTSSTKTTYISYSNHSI
As to `COc1ccc(C(=O)NCc2oc(-c3ccccc3)cc2C(=O)O)cc1`, the z-score is -0.64.
Take `CCn1c(SCC(=O)N/N=C/C(C)=C/c2ccco2)nnc1-c1ccccc1`: the z-score is -0.0753.
As for `Cc1cc(C(F)(F)F)nn1CC(=O)Nc1ccc(Br)c2cccnc12`, the figure is -0.094; as for `CC(SCc1ccccc1)C(=O)Nc1ccc2c(c1)OCO2` (configuration not stated), -0.422; as for `Cc1cc(=O)oc2n[nH]c(-c3ccccc3)c12`, -0.525.
As for `O=[N+]([O-])c1ccccc1/C=N/n1c(C2CCCCC2)n[nH]c1=S`, the figure is 1.05; as for `COCCCNC(=O)CNC(=S)N(Cc1ccc(F)cc1)C1CCCCC1`, 0.433.
As for `CSc1nnc(-c2sc3cc(Cl)ccc3c2Cl)n1C`, the figure is -1.25; as for `O=C(CSc1nnnn1-c1cccnc1)NCc1cccs1`, 0.883.
Turning to `Cc1occc1C(=O)NCCc1ccc(Cl)cc1`, the z-score is -0.116.
`Nc1nc(-c2ccc3c(c2)NC(=O)CO3)cs1`: the z-score is -0.208.
`Cc1ccc(C(=O)N/N=C/c2ccc(S(=O)(=O)O)o2)c(Cl)c1` registered a z-score of -0.207.
The result for `COC(=O)CC1=Nc2ccccc2NC(=O)C1` reads -0.298; that for `CCCCCC(O)(CCCCC)C(=O)NNc1ccccc1`, -0.0829; that for `CCCCCCC(=O)Nc1cc2c(C)cc(=O)oc2cc1C`, -0.348.
As for `CCn1c(SCC(=O)Nc2nc(C)cs2)nnc1-c1ccco1`, the figure is -0.791.
The result for `COc1ccc(Cl)cc1C(=O)OCC(=O)NC(=O)c1cccn1C` reads -0.0967; that for `CCOC(=O)c1cc(-c2ccccc2)n(CC(=O)Nc2ccc(OCC)cc2)c1C`, -0.158; that for `COc1cc(S(=O)(=O)n2nc(C)cc2C)c(OC)cc1Cl`, 0.582.
Molecule `CCC(C)c1ccc(OCCn2cc(/C=N/NC(=O)CSc3nnc(C)s3)c3ccccc32)cc1` (configuration not stated) showed a z-score of 0.38.
The result for `CCOc1ccc(OCc2cccc(C(=O)N/N=C/c3cccnc3)c2)cc1` reads -0.0967.
As for `Cc1c(N2C(=O)CS/C2=N\N=C\c2ccc(Br)cc2)c(=O)n(-c2ccccc2)n1C`, the figure is -0.286; as for `COc1ccc(OC)c(C2NC(=O)c3sc(=S)n(-c4ccccc4)c3N2)c1` (configuration not stated), 0.229.
As for `COc1ccc2[nH]c(=O)c(CN(Cc3nnnn3CCc3ccccc3)CC3CCCO3)cc2c1` (configuration not stated), the figure is -0.717.
For the molecule `Cc1cc[n+](CC(=O)c2cccs2)cc1`, the z-score is -0.039.
On to `Cc1ccc(CSc2nnc(Nc3ccc(C)cc3)s2)cc1`, for which the z-score amounted to 0.48.
As for `CC1CN(S(=O)(=O)c2ccc(NC(=O)CCN3C(=O)c4ccccc4C3=O)cc2)CC(C)O1` (configuration not stated), the figure is -0.453.
Regarding `CCN1CCc2c(sc(N)c2C(N)=O)C1`, the z-score was -0.0945.
For the molecule `COc1cc(/C=N/Nc2ccccc2)ccc1OC(=O)c1cccs1`, the z-score is -0.425.
The result for `COc1ccc(NC(=O)CN2CCC(C(N)=O)CC2)cc1` reads 0.665; that for `NC(=S)Nc1cnc2ccccc2c1`, -0.176; that for `COc1ccc(-n2nc([N+](=O)[O-])c(=NCCc3ccc(Cl)cc3)n2O)cc1`, -2.2.
The result for `COC(=O)C1=C(C)N(c2ccc(F)c(Cl)c2)C(=O)C1` reads 1.14; that for `O=C(c1cc2ccccn2n1)N1CCN(c2ccccn2)CC1`, -0.0834; that for `Cc1ccccc1-n1nnnc1SC(C)C(=O)NC1CCCc2ccccc21` (configuration not stated), -0.733.
`Cc1nnc(NC(=O)Nc2ccc(Cl)c(Cl)c2)s1`: the z-score is -0.096.
`COCCN(CC(=O)Nc1ccccc1C)S(=O)(=O)c1ccc(S(=O)(=O)N2CCCC2)cc1`: the z-score amounted to 0.545.
On to `Cc1cc(NCCCn2ccnc2)n2ncc(-c3ccc(Cl)cc3)c2n1`, for which the z-score was -0.224.
For `CCn1c(=O)c(C(=O)NCCCO)c(O)c2ccccc21`, the z-score is active: 3.51.
As for `O=c1[nH]c2cc3c(cc2cc1CN(Cc1ccccc1)Cc1nnnn1Cc1ccco1)OCCO3`, the figure is -0.277; as for `COC(=O)c1ccccc1NC(=O)c1ccc(COc2ccc(C)c(C)c2)o1`, -0.951.
Molecule `COc1ccc(CN2CCC(=O)NC2=O)cc1` came in with a z-score of 0.00959.
As for `Cc1[nH]c2ccccc2c1C(=O)CSc1nc2ccccc2[nH]1`, the figure is -0.344.
Turning to `CCC(C)(C)n1nnnc1C(c1ccncc1)N1CCC(Cc2ccccc2)CC1` (configuration not stated), the z-score is -0.0317.
In turn, `CCOC(=O)CSc1cc(=O)n(C)c2cc(Cl)ccc12` gave a z-score of -2.26.
For `O=C(c1ccc(CS(=O)(=O)c2ccc(Br)cc2)o1)N1CCOCC1`, the z-score is -0.0262.
As for `O=C(NC1CC1)c1ccc(CS(=O)(=O)c2c(Cl)cccc2Cl)o1`, the figure is -0.443.
The result for `Cc1ccc(Nc2nc(N)nc(CN3CCN(Cc4ccc5c(c4)OCO5)CC3)n2)cc1` reads 0.167.
The result for `Cc1cccc(N=C2NC(=O)/C(=C/c3cccs3)S2)c1` reads 0.118; that for `CC(C)CCNC(=O)C(c1cccnc1)N(Cc1ccccc1)C(=O)Cn1nnc2ccccc21` (configuration not stated), -0.0344; that for `COC(=O)CSc1nnc(CNC(=O)c2ccccc2OC)n1-c1ccc(OC)cc1`, -0.0857.
`O=C(COC(=O)CCCN1C(=O)c2cccc3cccc(c23)C1=O)Nc1ccc(Cl)cc1` registered a z-score of -0.14.
Molecule `S=c1[nH]nc(-c2ccco2)n1Cc1ccccc1` returned a z-score of 0.271.
As for `COc1cc(C(=O)OCCn2c(=O)c3c(ncn3CCN(C)C)n(C)c2=O)cc(OC)c1OC`, the figure is -0.222; as for `CCCN(CCC)c1nc2ccccc2nc1C(C#N)C(=O)OC(C)COC` (configuration not stated), active: -3.86; as for `Cc1ccc(N2C(=O)c3ccccc3C2Nc2ccccc2)nc1` (configuration not stated), -0.424.
In the case of `Cc1ccc(C)c(Nc2ncnc(N)c2[N+](=O)[O-])c1`, the z-score was 0.14.
`COC(=O)c1[nH]c2ccccc2c1NC(=O)CN1CCN(c2cccc(Cl)c2)CC1` registered a z-score of -1.61.
The result for `Cc1cccc(C)c1OC(=O)CSc1nnc(-c2ccccc2)o1` reads -0.181; that for `C(=N\n1c2ccccc2c2ccccc21)/c1ccccc1`, 0.219.
As to `CC(=O)c1cc(C#N)c(SCCC(C)C)nc1C`, the z-score is -0.563.
On to `COCCCN1C(=O)C(=O)/C(=C(/O)c2ccccc2)C1c1ccc(N(C)C)cc1` (configuration not stated), for which the z-score was -0.27.
With `O=C(NC1(C(F)(F)F)NC(=O)N(c2ccccc2F)C1=O)c1ccncc1` (configuration not stated), the z-score is -0.16.
`COc1ccc(-c2nc(CCNC(=O)c3cccs3)cs2)cc1` gave a z-score of -0.332.
On to `COc1cc(OC)c(C(=O)NC2CCCCCC2)cc1OC`, for which the z-score is -0.172.
`O=C(c1ccco1)N1CCN(C(=O)c2ccccc2OC(=O)C23CC4CC(CC(C4)C2)C3)CC1` displayed a z-score of -0.229.
Take `CCOC(=O)c1cc2c(=O)n3ccccc3nc2n(CCCOC)c1=NC(C)=O`: the z-score was -0.197.
The result for `COc1cc(SC)ccc1C(=O)NCCOc1c(C)cc(C)cc1C` reads -0.191; that for `CCCSc1nc(=O)n2cccc(C)c2n1`, -0.6; that for `Cc1cccc(C)c1N=C1NN=C(c2ccccc2F)CS1`, 0.0768.
In turn, `CCc1ccc(-c2csc(-c3c[nH]c4ccccc34)n2)cc1` showed a z-score of 0.735.
Take `CCc1ccccc1NC(=O)C(C)n1nc([N+](=O)[O-])c(Br)c1C` (configuration not stated): the z-score was -0.169.
`O=C(NCc1ccc2c(c1)OCO2)c1ccc(Cl)c(S(=O)(=O)N2CCOCC2)c1` had a z-score of -0.275.
With `COc1ccc(C(=O)Cn2c(NCCO)nc3ccccc32)cc1OC`, the z-score is 0.0145.
`CCCn1c2ccccc2c2nnc(SCC(=O)Nc3cc(C)on3)nc21`: the z-score was 0.531.
The result for `CCc1ccccc1NC(=O)CN(C)C(=O)CSc1nn(-c2ccccc2)c(=S)s1` reads -0.632.
The molecule `CCC(Sc1nc(=O)cc(N)n1-c1cccc(C)c1)C(=O)Nc1cc(C)on1` (configuration not stated) came in with a z-score of -0.411.
As for `O=S(=O)(NCCSCc1ccc(Cl)cc1Cl)c1ccc2c(c1)OCCO2`, the figure is -0.123; as for `O=C1CC(SC(=Nc2ccccc2)Nc2ccccc2)C(=O)N1c1ccc(Cl)cc1` (configuration not stated), -0.0248; as for `COc1ccccc1Nc1ncnc2ccc(C)cc12`, 1.32.
As to `Oc1ccc(/C=N/Nc2cc(N3CCCC3)nc(N3CCCC3)n2)cc1`, the z-score is 0.0321.
With `COc1ccccc1OCCCCOc1ccccc1F`, the z-score was -0.202.
The result for `Cc1occc1C(=O)NNC(=S)NCC(C)C` reads 0.239; that for `O=C(Nc1ccccc1-c1nc2ccccc2s1)c1cccnc1Cl`, -0.00366.
On to `O=C(N/N=C/c1ccc2c(c1)OCO2)C1COc2ccccc2O1` (configuration not stated), for which the z-score came to 0.435.
On to `CC(=O)NC1(C(F)(F)F)C(=O)N(Cc2ccccc2)C2=C1C(=O)CC(C)(C)C2` (configuration not stated), for which the z-score is -0.139.
The molecule `CSc1nc(-c2ccc(Cl)cc2)nn1S(=O)(=O)c1ccccc1` registered a z-score of 0.244.
The result for `O=C(CSc1ncc(C(F)(F)F)cc1Cl)N1CCN(S(=O)(=O)c2ccc(Cl)cc2)CC1` reads 0.124.
As for `Cc1ccc2c(c1)C=CC(C#N)N2C(=O)c1ccccc1` (configuration not stated), the figure is -0.641; as for `COc1ccccc1CNC(=O)c1cccc(N(C)C)c1`, 0.0341.
`Cc1cccc(C(=O)Nc2ccccc2C(=O)OCC(=O)Nc2ccc(C#N)cc2)c1` yielded a z-score of 2.11.
Regarding `COC(=O)c1cc(OC)c(OC)cc1NCC(=O)Nc1ccc(OC)c(OC)c1`, the z-score was -0.419.
The result for `Cc1nnc(SCC(=O)Nc2ncc(Cc3ccc(F)cc3)s2)n1N` reads 1.83; that for `COc1ccc(-c2cn3ccccc3n2)cc1[N+](=O)[O-]`, 0.823.
As for `Cc1ccnc2nc(C(=O)OCCOc3cccc(Br)c3)nn12`, the figure is -0.379; as for `Nc1nnc(C(=O)c2ccccc2N)s1`, active: 4.29; as for `Cc1cccc(-c2nnn3c2nc(NCCc2ccc(S(N)(=O)=O)cc2)c2ccccc23)c1`, -0.272.
`C=COCCNC(=O)C1CC(=O)N(c2ccc(C)cc2)C1` (configuration not stated): the z-score worked out at 1.08.
`C/C(=N\NC(=O)COc1ccccc1)c1cccs1` came in with a z-score of -0.019.
As for `Cc1ccc(S(=O)(=O)N2CCCC2)cc1[N+](=O)[O-]`, the figure is -0.161; as for `CC1CCN(C(=O)c2ccc(COc3ccccc3Cl)o2)CC1`, -0.787.
As for `O=C(Nc1ccccc1Cl)c1cccc(NS(=O)(=O)c2ccccc2)c1`, the figure is -0.436; as for `Cc1cc(C(=O)COc2ncnc3sccc23)c(C)n1C1CC1`, -0.349; as for `COc1ccc(-c2noc(-c3ccccc3-c3ccccc3)n2)cc1OC`, 0.544.
The result for `COc1ccc(S(=O)(=O)Nc2nnc(CC(C)C)s2)cc1` reads -0.287; that for `Cc1ccc2nc(-c3ccccn3)oc2c1`, 0.326.
Regarding `CCCCC(=O)NC(c1ccc(OC)c(OC)c1)c1c(O)ccc2ccccc12` (configuration not stated), the z-score is -0.0347.
For the molecule `C/C(=N\Nc1nc(N)cc(Cl)n1)c1cccc([N+](=O)[O-])c1`, the z-score is -0.101.
As for `CCc1nnc(NC(=O)C2CCC2)s1`, the z-score was -0.429.
`COc1ccc(N2CCN(C(=O)c3ccc(NS(=O)(=O)c4ccccc4)cc3)CC2)cc1` displayed a z-score of -0.449.
As to `CCOC(=O)C1C(c2cccs2)NC(=O)N(C)C1(O)C(F)(F)F` (configuration not stated), the z-score was -0.437.
Molecule `CC(C)N1C(=O)C2C(C(=O)NCc3ccccc3)C3C=CC2(O3)C1C(=O)NC(C)(C)C` (configuration not stated) showed a z-score of -0.153.
